Assay results as given in patent US20240156864A1 (UNIVERSITY OF NORTH CAROLINA AT CHAPEL HILL, published 2024).

Target: T1, CAR19.BBζ (human, UniProt P01732 138-206; Q07011 214-255; P20963 in part)
T1 construct: Expressed in human T cells (or Jurkat cells) and pulled down from lysate; also called CAR.BBζ; CAR19.BBC
Test: co-IP with anti-CAR19 Ab from CAR-T cell lysate, LC-MS/MS
Procedure: For Immunoprecipitation (IP), assay, proteins from T cells were extracted in RIPA lysis buffer (Thermo Scientific) supplemented with 1×protease/phosphatase Inhibitors (Thermo Scientific). Equal amount of total proteins was used for IP. Rabbit/mouse IgG (Thermo Scientific) with protein G magnetic beads (Bio-Rad) was used to pre-clear the lysate and anti-CAR19, anti-HA or anti-FLAG Abs were incubated with lysate for 16 hours, and protein G beads were then used for the pull-down. IP products were dissolved in 2× SDS Laemmli buffer for Western blot analysis. […] 2× SDS Laemmli buffer without β-mercaptoethanol was used to dissolve the IP product, and β-mercaptoethanol was supplemented before western blot.
For mass spectrometry (MS) assays, immunoprecipitated samples (3 biological replicates) were subjected to SDS-PAGE and stained with Coomassie blue dye. Lanes for each sample were excised and the proteins were reduced, alkylated, and in-gel digested with trypsin overnight at 37° C. Peptides were extracted, desalted with C18 spin columns (Pierce) and dried via vacuum centrifugation. Peptide samples were stored at −80° C. until further analysis. The peptide samples were analyzed by liquid chromatography coupled to tandem mass spectrometry (LC-MS/MS) in 3 separated experiments using a Thermo Easy nLC 1000 coupled to a QExactive HF or a Waters nanoAcquity coupled to a Thermo LTQ-Orbitrap Velos. Samples were injected onto a PepMap C18 column (75 μm id×25 cm, 2 μm particle size) (Thermo Scientific) and separated over a 90 or 120 min gradient where mobile phase A was 0.1% formic acid in water and mobile phase B consisted of 0.1% formic acid in ACN. The LTQ-Orbitrap Velos was operated in data-dependent mode where the 10 most abundant precursors were selected for CID fragmentation (35% CE). The QExactive HF was operated in data-dependent mode where the 15 most intense precursors were selected for subsequent HCD fragmentation (27 NCE).

B1: LCK (enzyme)
chain: not shown
notes: Endogenous protein from T cell lysate; also called lymphocyte-specific protein tyrosine kinase; LCK kinase
- Area: 4.48e+08
- Coverage: 34%
- Peptides (number identified): 13
